Test results as given in PubChem BioAssay (NCI).
Values joined by “and” are separate entries in the source; they are usually repeats but may differ in a detail not shown here. Equal entries are not always repeated.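 Step 1: Grow cells in 96-well plates. Step 2: Expose to compound for 48 hours at 5 concentrations. Step 3: Interpolate endpoints linearly; if unreached, use highest concentration. GI50 is the concentration that inhibits growth by half. Definition used: TGI = concentration required for complete inhibition of growth.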 Bridge positions count the residues as written; N and C are the ends. Square brackets hold non-standard residues; d marks the D form. Peptide text beside a SMILES is read from it. * marks the point of attachment. ξ: configuration not given here. Chg = N[CH](C(=O)O)C1CCCCC1; Cbz = O=C(OCc1ccccc1)*; PhAc = O=C(Cc1ccccc1)*; OBn = c1ccc(CO*)cc1; ξP = O=C(O)C1CCCN1

Tested on: NCI-H322M lung
Experiment: growth of human tumour cells (NCI), 48 h

Compound | GI50 | TGI
O=C(O)c1ccc2nc(-c3ccc(OCCCCCOc4ccc(-c5nc6ccc(C(=O)O)cc6[nH]5)cc4)cc3)[nH]c2c1 | > 100 µM | > 100 µM
CC(=O)COC(=O)CC(C)=O | – | > 100 µM
COc1cc(/C=N/NC(=O)c2c(Cl)c(Cl)c(Cl)c(Cl)c2-c2nc3ccccc3[nH]2)ccc1O | – | > 100 µM
CC1OC(OC2C(O)COC(OC3C(C)OC(OC4C(OC(=O)[C@]56CCC(C)(C)C[C@@H]5C5=CCC7[C@@]8(C)C[C@H](O)[C@H](OC9OC(CO)C(O)C(O)C9O)[C@@](C)(CO)[C@@H]8CC[C@@]7(C)[C@]5(C)CC6)OCC(O)C4O)C(O)C3OC3OCC(O)C(O)C3O)C2O)C(O)C(O)C1O (stereo partly drawn) | – | 30 µM
O=C1/C(=C/c2ccc(Cl)cc2Cl)CN(S(=O)(=O)c2ccccc2)C/C1=C\c1ccc(Cl)cc1Cl | 0.662 µM | 16.5 µM
CC(C)Cn1cnc2c(Sc3c([N+](=O)[O-])ncn3C)nc(N)nc21 | – | > 100 µM
c1ccc(-c2ccc(-c3ccc(C4=NCCN4)cc3)o2)cc1 | – | 7.45 µM
CC(=O)O[C@H]1C[C@H](O[C@H]2[C@@H](O)C[C@H](O[C@H]3[C@@H](O)C[C@H](O[C@H]4CC[C@@]5(C)C(CCC6C5C[C@@H](O)[C@]5(C)[C@@H](C7=CC(=O)OC7)CC[C@]65O)C4)O[C@@H]3C)O[C@@H]2C)O[C@H](C)[C@H]1O[C@@H]1O[C@H](CO)[C@@H](O)[C@H](O)[C@H]1O (stereo partly drawn) | 0.0333 µM and 0.104 µM | 0.171 µM and 0.405 µM
CCOC(=O)c1sc2c(sc(=O)n2-c2ccccc2)c1O | – | > 100 µM
CCN(CC)c1ccc(/C=C/C2=NN(c3cccc(S(=O)(=O)O)c3)C3(C2)SCC(=O)N3c2nc3ccccc3s2)cc1 (stereo not drawn) | – | > 100 µM
O=C(Cn1nnc(-c2ccccc2)n1)N/N=C/c1cn(Cc2ccc(Cl)cc2Cl)c2ccccc12 | – | > 100 µM
Fc1cc(-c2csc3n[nH]c(=S)n23)c(Cl)cc1Cl | 48.2 µM | > 100 µM
CC(=O)Oc1c(C)cc2c(c1C)C(C)CN2C(C)=O (stereo not drawn) | – | > 100 µM
COc1ccccc1C=NC12CC3CC(CC(C3)C1)C2 | – | > 100 µM
COc1cc([C@@H]2c3cc4c(cc3[C@@H](NC(=O)c3cccc(C#N)c3)C3COC(=O)[C@@H]32)OCO4)cc(OC)c1O (stereo partly drawn) | – | > 100 µM
C#CCC(O)c1ccccc1C(O)CC#C (stereo not drawn) | – | > 100 µM
CCOC(=O)C(C(C)=O)C1CC=CC1 (stereo not drawn) | – | > 100 µM
Nc1ncnc2c1ncn2C1OC(CSC(F)F)C(O)C1O (stereo not drawn) | – | > 100 µM
Cc1ccc(N=Nc2c(O)c(C(=O)O)cc3ccccc23)c(S(=O)(=O)O)c1 | – | > 100 µM
COc1ccc(N=NC(=O)NC(CC(C)C)C(=O)NC(CC(C)C)C(=O)O)cc1 (stereo not drawn) | – | > 100 µM
OC[C@H]1C[C@@H]2Cc3ccccc3N2N1 | – | > 100 µM
CN1CCCN(C)CCCN(C)CCCN(C)CCC1 | – | > 100 µM
C/C=C/C1(C)/C(=N\O)C(C)(CCC)C(=O)N1O (stereo not drawn) | – | > 100 µM

Compound | GI50 | TGI
N/C(=N\Nc1ccc(C(=O)O)cc1)c1cnccn1 | – | > 100 µM
COc1ccc(NC(C)=O)cc1N1C(=O)/C(=C\c2cccc(Oc3ccccc3)c2)S(=O)(=O)C1c1ccccc1 (stereo not drawn) | – | > 100 µM
COc1ccc(/C=C/c2cc(OC)cc(OC)c2)cc1 | – | 53.7 µM
CC(C)=NNC1=NC(C)(C)P(=O)(NNc2ncccn2)S1 (stereo not drawn) | – | > 100 µM
COc1ccc(-c2cc(-c3ccccc3)nc(N)c2-c2ccc3ccccc3c2)cc1 | – | 3.78 µM
COC(=O)CCC1(C)C2CCC1/C(=N/O)C2 (stereo not drawn) | – | > 100 µM
C=C1C(=O)O[C@H]2[C@H]1CC/C(COC(=O)NCc1ccc(Cn3c(=O)sn(CCCC)c3=O)cc1)=C\CC[C@@]1(C)O[C@@H]21 | 11.6 µM | 23.7 µM
COC(=O)C1=C(C(=O)OC)C2(C3C(SC)=CC(C)(C)CC3S1)N(Cc1ccccc1)CCN2Cc1ccccc1 (stereo not drawn) | – | > 100 µM
C=CCN(c1cc(OCc2ccccc2)c2c(c(C)cn2S(=O)(=O)c2ccc([N+](=O)[O-])cc2)c1[N+](=O)[O-])S(C)(=O)=O | – | > 100 µM
CCn1cc(C2NC(=O)c3ccccc3N2)c2cccc(C)c21 (stereo not drawn) | 0.6 µM | 54.1 µM
COC(=O)C1C(O)C(C)C(O)C(C)(O)C=C(C)C2=C3C(=C(C)C(=O)c4c(O)c(c(C)c(OC(C)=O)c43)NC(=O)C(C)=C/C=C\C(C)(O)C(O)C(C)C1O)OCO2 (stereo not drawn) | – | > 100 µM
CC(C)NC(=O)OCc1c(COC(=O)NC(C)C)n(C)c2c1ccc1ccsc12 | – | 34.9 µM
CCCCCOc1ccc(Nc2c(O)c3c(c(O)c2Cl)C(=O)C=CC3=O)cc1 | – | > 10 µM
Cc1ccc(NN=NCCCCN=NNc2ccc(C)cc2)cc1 | – | > 100 µM
COC(=O)c1ccc2cc(O)c(O)cc2c1 | – | > 100 µM
NC(N)=NNC(=O)CCn1[nH]c(=O)c(Cl)c(Cl)c1=O | – | > 100 µM
COC(=O)C(NC(=O)C(CC(=O)OCc1ccccc1)NC(=O)OCc1ccccc1)C1CCCCC1 (stereo not drawn) (Cbz-Asp(OBn)-[Chg]-OMe; configuration not given here) | – | > 100 µM
CCOc1ccc(/C=C\c2cc(OC)c(OC)c(OC)c2)cc1 | – | > 100 µM
CCOC(=O)c1cnc2c(C)cc(C)cc2c1NCCCN(C)C | 5.26 µM | 67.2 µM
CC(C)N(C(=O)C12C3(C(=O)OC(C)(C)C)C4C5(C#N)C3C1(C(=O)OC(C)(C)C)C5C42C(=O)OC(C)(C)C)C(C)C (stereo not drawn) | – | > 100 µM
COc1cc2c(c(OC)c1OC)-c1ccc(SC)c(=O)cc1C(CC(=O)Oc1ccc(F)cc1)C2 (stereo not drawn) | 0.404 µM | 75 µM and 18.3 µM
N#C/C(=C\c1ccc2c(c1)OCO2)n1nnc2ccccc21 | 2.54 µM | 12.1 µM
COc1cc2c[n+](C)c3c4cc(OC)c(OC)cc4c(OCCCCCCCCOc4cc5c6cc(OC)c(OC)cc6c[n+](C)c5c5cc(OC)c(OC)cc45)cc3c2cc1OC | – | > 100 µM

Compound | GI50 | TGI
O=S(=O)(O)c1ccc(-c2c3nc(c(-c4ccc(S(=O)(=O)O)cc4)c4ccc([nH]4)c(-c4ccc(S(=O)(=O)O)cc4)c4nc(c(-c5ccc(S(=O)(=O)O)cc5)c5ccc2[nH]5)C=C4)C=C3)cc1 | – | 65.1 µM
COc1ccc(Cc2nn(C3OC(COC(C)=O)C(OC(C)=O)C(OC(C)=O)C3OC(C)=O)c(=S)n(-c3ccc(OC)cc3)c2=O)cc1 (stereo not drawn) | – | > 100 µM
CC(C)c1ccc(COCc2cc(CN3CCCC3)c(O)c3ncccc23)cc1 | 0.407 µM | 9.06 µM
COc1cc2c(cc1O)[C@@]1(Cc3ccc(OC)c(OC)c3)CCC(=O)N1CC2 | – | > 100 µM
Cc1ncc(CSc2ccccc2N)c(CO)c1O | – | > 100 µM
C[N+](C)(C)CC1CCCC(C[N+](C)(C)C)C1=NO (stereo not drawn) | – | > 100 µM
COC(=O)C12C3C4C1C1C2C3C41C(=O)NC(C)(C)CC(=O)O (stereo not drawn) | – | > 100 µM
Cc1ccc(Cl)cc1Nc1nc(C(F)(F)F)ccc1C(N)=O | 2.06 µM | 22.1 µM
COc1ccccc1NC(=O)c1ccc(NC2=C(Cl)C(=O)N(Cc3ccccc3)C2=O)cc1 | 21.5 µM | 63.5 µM
O=C(Cc1ccccc1)N[C@@H]1COC(=O)C2CCCN2C(=O)[C@@H]2CCCN2C1=O (stereo partly drawn) (PhAc-[dS]-Pro-[ξP]; ester 1-C) | – | > 100 µM
Cc1ccc(C2CC(c3cccc(Nc4ccncc4)c3)=NN2c2cc(Cl)cc(Cl)c2)cc1 (stereo not drawn) | 1.58 µM | 2.97 µM
Cn1cc(NC(=O)c2cc(NC(=O)CCCCCCCCC(=O)Nc3cc(C(=O)Nc4cc(C(=O)NCCC(N)N)n(C)c4)n(C)c3)cn2C)cc1C(=O)NCCC(=N)N | – | 32.5 µM
COc1cc(/C=C\c2cc(/C=C\c3ccc(O)c(OC)c3)n(C(=O)COc3ccc(Cl)cc3Cl)n2)ccc1O | 1.4 µM | 11.3 µM
COc1ccc(C2Oc3ccc(O)cc3[C@@H]2C)cc1OC (stereo partly drawn) | – | > 100 µM
CC(C)c1ccccc1NC(=O)CCC(=O)NN | – | > 100 µM
CC1=NOC(C)(O)/C1=N/O (stereo not drawn) | – | > 100 µM
c1ccc(-c2n(Cc3ccc4ccccc4n3)cc[n+]2Cc2ccc3ccccc3n2)cc1 | 4.74 µM | 19.3 µM
O=C1C(C(Nc2ccccc2)c2ccccc2)=C([O-])c2ccccc21.O=C1C(C(Nc2ccccc2)c2ccccc2)=C([O-])c2ccccc21.[Ni+2] (stereo not drawn) | 5.79 µM | > 100 µM
Cn1ccnc1C(=O)/C=C/c1ccc(C(=O)Nc2ccc(F)cc2)cc1 | 1.22 µM | 5.92 µM
CN(N=O)C(=O)NNC(=O)N(C)N=O | – | > 100 µM
CN(C)C=Nc1ccc2c3c(cccc13)-c1ccccc1-2 | – | 28.1 µM
Oc1ccc(-c2nc3ccc(F)cc3s2)cc1 | – | 45.6 µM
C[C@]12OC(=O)[C@]3(O)CC[C@H]4[C@@H](C[C@@H](O)[C@@]5(Cl)CC=CC(=O)[C@]45C)[C@]45OCC6C(=O)O[C@@H]1C[C@@]6(C)[C@H](C4=O)[C@@]32O5 (stereo partly drawn) | – | 15.7 µM

Compound | GI50 | TGI
CN(C)CCN(C)CCC(=O)/C=C/c1ccccc1 | – | > 100 µM
COc1ccc(N2C(=O)C3c4[nH]c5cccc(Cl)c5c4C4CCC(C(C)(C)C)CC4C3C2=O)cc1 (stereo not drawn) | – | > 100 µM
NC(N)=N/N=C(/CCN1CCCC1)CC(c1ccccc1)c1c(O)c2ccccc2oc1=O (stereo not drawn) | – | > 100 µM
COc1ccc(-n2cnc3c(N)nc(N)nc32)cc1 | – | > 100 µM
COc1ccc(CN(Cc2ccc(OC)cc2)C(=O)CC2(O)CCc3ccccc3C2)cc1 (stereo not drawn) | – | > 100 µM
C=C1CC[C@@H]2C(C)(C)[C@H](O)CC[C@@]2(C)[C@@H]1COc1ccc2ccc(=O)oc2c1 | 23.1 µM | 71.8 µM
C[C@H](Nc1ccc2c(c1)OCCn1cc(N3C(=O)OC[C@H]3C(F)F)nc1-2)C(N)=O | 0.461 µM | > 66.5 µM
COc1cc2c(Nc3ccc(Cl)c(Cl)c3F)ncnc2cc1OCC1C[C@@H]2CN(C)C[C@@H]2C1 (stereo partly drawn) | 0.0605 µM and 0.0341 µM and 0.0244 µM | 7.06 µM and > 5.68 µM and 11 µM
COc1ccc(OC)c(N(CCN2C(=O)c3ccccc3C2=O)C(=O)CCl)c1 | 18.9 µM | 39.4 µM
O=C1CNN=C(CSc2nc3ccc(I)cc3c(=O)n2Cc2ccccc2)N1 | – | > 100 µM
COc1ccc2c3c([nH]c2c1)C(=O)c1nc(C)ccc1C3=O | 2.98 µM | > 100 µM
COc1nc(=O)cc(N)n1C1OC(CO)C(O)C1O (stereo not drawn) | – | > 100 µM
NC12CC3C4CC5(N)CC3C(C1)C(C5)C4C2 | – | > 100 µM
Cc1n[nH]c(=O)n1/N=C/c1cccc(Cl)c1 | – | > 100 µM
CC1=C(C(=O)OCCc2ccc([N+](=O)[O-])cc2)C(c2cccc([N+](=O)[O-])c2)C(C(=O)OC(C)C)=C(C)N1 (stereo not drawn) | – | > 100 µM
CCc1nc(N)c2nc(-c3ccc(C#N)cc3)oc2n1 | – | > 100 µM
O=C(NCCCCN(CCCNC(=O)C(F)(F)F)Cc1ccccc1)C(F)(F)F | – | > 100 µM
O=c1cc(N2CCOCC2)[nH]c(=O)n1-c1cccc(Cl)c1 | – | > 100 µM
Cc1ccc(SC2=C(N(C)C)C(=O)c3ccccc3C2=O)cc1 | – | 30.1 µM
CC(=O)Oc1ccc2c3c1[C@H]1O[C@H]1c1cccc(c1-3)[C@@H]1O[C@H]21 | – | 28.4 µM
COc1ccc2c(c1)c(-c1nonc1-c1cn(C)c3ccccc13)cn2C | 1.48 µM | > 100 µM
